# Data as given in PMC4336329 (PLoS ONE, 2015).
# Screen size: about 310,000 compounds; about 2,200 (0.71%) showed an effect of 50% or more. The effect is printed as a negative number. Some of the results follow.
# Molecular target: human ether-à-go-go-related gene (hERG) potassium channel (human, UniProt Q12809)
# Assay: primary screen, population patch clamp on CHO cells stably expressing hERG
# human ether-à-go-go-related gene (hERG) potassium channel, sequence (Q12809 whole entry, looked up): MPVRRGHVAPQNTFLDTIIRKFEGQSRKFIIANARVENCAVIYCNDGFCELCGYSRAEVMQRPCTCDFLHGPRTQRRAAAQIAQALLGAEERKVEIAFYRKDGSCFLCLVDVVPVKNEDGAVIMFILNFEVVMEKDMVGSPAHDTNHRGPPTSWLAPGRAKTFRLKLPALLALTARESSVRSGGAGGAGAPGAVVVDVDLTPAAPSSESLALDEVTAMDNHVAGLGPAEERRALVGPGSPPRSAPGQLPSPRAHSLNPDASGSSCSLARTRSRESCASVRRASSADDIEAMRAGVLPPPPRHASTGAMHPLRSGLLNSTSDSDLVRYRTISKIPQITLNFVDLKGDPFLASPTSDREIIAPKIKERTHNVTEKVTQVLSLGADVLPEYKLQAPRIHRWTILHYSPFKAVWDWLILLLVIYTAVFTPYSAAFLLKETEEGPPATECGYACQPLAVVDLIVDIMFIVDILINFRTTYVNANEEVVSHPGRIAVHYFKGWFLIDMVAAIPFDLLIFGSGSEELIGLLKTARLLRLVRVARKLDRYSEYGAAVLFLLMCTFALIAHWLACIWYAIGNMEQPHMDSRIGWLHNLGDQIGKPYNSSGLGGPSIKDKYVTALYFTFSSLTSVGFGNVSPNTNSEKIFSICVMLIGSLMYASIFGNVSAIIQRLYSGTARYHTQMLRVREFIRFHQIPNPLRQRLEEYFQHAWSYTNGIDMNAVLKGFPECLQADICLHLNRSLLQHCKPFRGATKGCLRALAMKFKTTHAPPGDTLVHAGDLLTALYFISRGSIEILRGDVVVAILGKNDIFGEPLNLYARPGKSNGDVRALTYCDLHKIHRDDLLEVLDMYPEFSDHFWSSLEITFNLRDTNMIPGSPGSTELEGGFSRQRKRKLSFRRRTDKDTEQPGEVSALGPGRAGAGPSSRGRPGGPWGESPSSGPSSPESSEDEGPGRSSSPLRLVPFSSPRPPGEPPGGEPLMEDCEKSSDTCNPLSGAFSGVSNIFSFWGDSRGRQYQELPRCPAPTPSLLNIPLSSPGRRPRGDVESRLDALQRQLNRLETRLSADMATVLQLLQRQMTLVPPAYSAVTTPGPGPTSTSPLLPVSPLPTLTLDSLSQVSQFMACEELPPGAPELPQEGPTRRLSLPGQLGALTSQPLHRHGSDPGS
row,SMILES,"hERG current change (%, negative = inhibition) at 1uM"
1,O=c1cc(-c2ccc([N+](=O)[O-])cc2)nc2cc(-c3ccc(F)cc3)[nH]n12,5.3%
2,COc1ccc(-c2nc(SCC(=O)N3CCOCC3)n[nH]2)cc1,-2.31%
3,O=C(Nc1ccc(Br)cc1)c1csc(-c2ccncc2)n1,7.93%
4,COc1ccccc1C1/C(=C(\O)c2ccc3c(c2)OCCO3)C(=O)C(=O)N1Cc1cccnc1 (centres unmarked),17.8%
5,CCOc1ccc(CNCc2cccnc2)cc1,-5.57%
6,CC(C)CN(CCCNC(=O)CN1C(=O)CSc2ccc(S(=O)(=O)N3CCOCC3)cc21)CC(C)C,5.83%
7,CCCCN(C)CCCNC(=O)c1cc(-c2cccnc2)nc2ccccc12,-20.2%
8,CC(C)C(NS(=O)(=O)c1ccc2c(c1)oc(=O)n2C)C(=O)N1CCN(c2ccccc2F)CC1 (centres unmarked),6.08%
9,CCOC(=O)C(Cc1ccccc1)NC(=O)CCC(=O)c1ccc(OC)cc1 (centres unmarked),10.7%
10,CC(C)c1ccc(-c2nn(-c3ccccc3)cc2C(=O)NCC2CCCO2)cc1 (centres unmarked),11.7%
11,CC(=O)NC(C)(CC(=O)c1ccccc1)c1ccccc1 (centres unmarked),12.9%
12,Cc1ccc(C2NC(=O)NC(O)(C(F)(F)F)C2C(=O)c2ccccc2)o1 (centres unmarked),3.68%
13,Cn1nc(-c2ccccc2)c2ncc(C(F)(F)F)cc21,-5.35%
14,CC(=O)/C(=N/Nc1ccc([N+](=O)[O-])cc1)N1CCCc2ccccc21,13.3%
15,COc1ccc(S(=O)(=O)Nc2ccc3c(c2)OCO3)cc1Cl,-1.66%
16,O=C(Cc1ccc(Br)cc1)N1CCc2ccccc2C1,14.8%
17,COc1cc(/C=N/NC(N)=O)c(Br)cc1OCC(=O)Nc1ccccc1C,0.504%
18,Cc1ccc(OCC(=O)Nc2ccc(F)cc2)cc1C,11.3%
19,COc1ccc(N=C2C(=O)Nc3ccccc32)cc1,-7.5%
20,NC(=O)c1c(NC(=S)Nc2ccccc2)sc2c1CCCC2,21.1%

row,SMILES,"hERG current change (%, negative = inhibition) at 1uM"
1,CCOC(=O)c1sc2c(c1C)c(=O)c(C(=O)OCC)cn2CC,13.9%
2,Cn1c(=O)oc2cc(S(=O)(=O)NCCC(=O)NCCc3ccccc3)ccc21,11.8%
3,CCOC(=O)c1cc2cc(OCc3ccccc3)ccc2nc1C,8.83%
4,CCOc1ccc(N(CC(=O)N/N=C/c2cccnc2)S(C)(=O)=O)cc1,12.9%
5,NS(=O)(=O)c1ccc(NC(=O)/C=C/c2ccc3c(c2)OCO3)cc1,19%
6,COc1ccc(Cc2nc3ccc(C(=O)NCc4cc(C)no4)cc3o2)cc1,17.8%
7,Cc1ccc(CN2CCC(n3nccc3NC(=O)C3CCOC3)CC2)cc1 (centres unmarked),4.04%
8,CCCNC(=O)c1cc(-c2ccc3c(c2)OCO3)on1,14.5%
9,CC1=C(C#N)C(=O)N(C)C(C)(C)C1,4.64%
10,CC(NC(=O)c1ccccc1)C(=O)N/N=C/c1ccc(O)cc1 (centres unmarked),13.5%
11,COc1ccc(NS(=O)(=O)c2ccc(O)c(C(=O)OCC(=O)N3CCCCC3)c2)cc1,12.4%
12,CCOC(=O)c1ccc(N(CC(=O)NCC2CCCO2)C(=O)CCC(=O)Nc2cc(C)on2)cc1 (centres unmarked),16.9%
13,CCN1CCN(c2nc(-c3ccccc3)c3ccccc3n2)CC1,-30.1%
14,CCOc1ncccc1C(=O)NCCc1ccc(Cl)cc1,7.04%
15,Cc1ccc2nc(-c3ccc(Br)cc3)cn2c1,10.6%
16,Cc1cc2n(n1)SC(Nc1ccc(F)c(Cl)c1)N2 (centres unmarked),-9.15%
17,O=C(NC1CCCCC1)NC1C2CC3CC(C2)CC1C3 (centres unmarked),7.9%
18,COc1ccccc1NC(=O)C1=C(C)Nc2nc(-c3cccs3)nn2C1c1cccc(O)c1 (centres unmarked),-9.47%
19,CCCn1cnc2c(=S)nc(N)[nH]c21,11.4%
20,CC(=O)N1CCN(CC(=O)Nc2ccccc2Sc2ccc(Cl)cc2)CC1,-58.3%

row,SMILES,"hERG current change (%, negative = inhibition) at 1uM"
1,CN(CC(=O)O)S(=O)(=O)c1cccs1,7.4%
2,CC(Cc1n[nH]c(=S)o1)c1ccccc1 (centres unmarked),4.48%
3,CC(=O)N(C(C)=O)C1=C(C#N)C2(CCCCC2)Cc2ccccc21,13.7%
4,CC1(C)Cc2nc3[nH]c(=S)[nH]c(=O)c3cc2CO1,12.8%
5,Cn1nccc1/C=C(/C#N)S(=O)(=O)c1ccccc1,9.69%
6,CCN(CC)CCCNC(=O)c1cc(Sc2nnc(C)s2)nc2ccccc12,-3.89%
7,Cc1nc(C(=O)Nc2cccc(Cl)c2)nn1-c1cc(OC(C)C)c(Cl)cc1Cl,-2.08%
8,COCCN(C(=O)c1ccco1)c1nc(-c2ccccc2)cs1,14.6%
9,CCNC(=O)O/N=C(\C)c1sc(-c2ccc(Cl)cc2)nc1C,8.65%
10,CCC1(C)Cc2nc3[nH]c(=S)n(-c4ccc(C)cc4)c(=O)c3cc2CO1 (centres unmarked),3.23%
11,Cc1c(C(=O)NCCCN2CCCC2=O)oc2ccc(S(=O)(=O)N3CCOCC3)cc12,3.33%
12,COc1ccc(/C=C/C(=O)C(C)(C)C)cc1OC,3.36%
13,O=C(Cn1nnc(-c2ccncc2)n1)N(C1CCCCC1)C1CCCCC1,-0.302%
14,COc1ccc(NC(=O)C(OC(=O)c2cnccn2)c2ccccc2)cc1Cl (centres unmarked),11.7%
15,O=C(NCCN1CCCCC1)c1ccc(=O)oc1,-2.96%
16,C=CCOCCN1C(=O)C2C(c3ccccc3)C=CC(c3ccccc3)C2C1=O (centres unmarked),8.51%
17,Cc1ccc(-c2nnc(SCC(=O)N3c4ccccc4NC(=O)C3(C)C)n2N)cc1,6.71%
18,CCOC(=O)c1c(N)sc(C(=O)N2CCCCCC2)c1C,12.9%
19,CCC(=O)Nc1sc(C(=O)Nc2ccccc2)c(C)c1C(=O)OC,-0.0995%
